Experimental data published in the supplement of paper PMC12067230.
The data scatter; read single values as rough.

test: amyloid nucleation score relative to library mode (yeast Sup35 reporter selection) (log enrichment difference); higher = more amyloid nucleation; sequences are the first 22 residues of the Bri2 peptide extended by up to 12 random residues; settings: random library (experiment): 1;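 active = nucleation score significantly above 0 at FDR 0.05; inactive = not significantly above 0 or absent from output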
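Note: [psi-pin-] Saccharomyces cerevisiae expressing SupN fusions, induced by 100 µM Cu2SO4, selected 7 d at 30 °C without adenine and uracil, scored by deep sequencing of output versus input.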

Sequence | amyloid nucleation score
EASNCFAIRHFENKFAVETLICTA | inactive
EASNCFAIRHFENKFAVETLICPSFNIIYLVV | 5.86
EASNCFAIRHFENKFAVETLICEHW | inactive
EASNCFAIRHFENKFAVETLICVSGEMAMLGSWP | inactive
EASNCFAIRHFENKFAVETLICVGVAQNSRLGDV | inactive
EASNCFAIRHFENKFAVETLICDVSIAIRYPVAM | inactive
EASNCFAIRHFENKFAVETLICNVGGGHLWVV | inactive
EASNCFAIRHFENKFAVETLICLTTILDVYVLWP | inactive
EASNCFAIRHFENKFAVETLICFVLVTGIRRVRS | 0.498
EASNCFAIRHFENKFAVETLICCRWNVEHRLLTQ | inactive
EASNCFAIRHFENKFAVETLICLRSIPFTSPGRS | inactive
EASNCFAIRHFENKFAVETLICMRNHDCGGWWQS | inactive
EASNCFAIRHFENKFAVETLICVFCDEYITGLRF | 6.82
EASNCFAIRHFENKFAVETLICDWRCTGDPLRRV | 5.44
EASNCFAIRHFENKFAVETLICTRDEGIYRKIGK | inactive
EASNCFAIRHFENKFAVETLICGDLRESANGLIA | inactive
EASNCFAIRHFENKFAVETLICIREGLVGSGWVR | inactive
EASNCFAIRHFENKFAVETLICRCYKFVVRVNEG | 2.12
EASNCFAIRHFENKFAVETLICGLRVARGSEAPD | 1.59
EASNCFAIRHFENKFAVETLICCYWISNQVNLLT | inactive

Sequence | amyloid nucleation score
EASNCFAIRHFENKFAVETLICISTILNFRFRRL | inactive
EASNCFAIRHFENKFAVETLICVVGGSMRQDWID | inactive
EASNCFAIRHFENKFAVETLICFGCFKVRKTWDS | 3.78
EASNCFAIRHFENKFAVETLICRMMMAGQRPGPR | inactive
EASNCFAIRHFENKFAVETLICGVFVAMKWSYRC | inactive
EASNCFAIRHFENKFAVETLICCRL | 2.94
EASNCFAIRHFENKFAVETLICWSYLI | inactive
EASNCFAIRHFENKFAVETLICTCLASCE | inactive
EASNCFAIRHFENKFAVETLICNR | inactive
EASNCFAIRHFENKFAVETLICGNKVVRKLTRLY | inactive
EASNCFAIRHFENKFAVETLICEMLE | inactive
EASNCFAIRHFENKFAVETLICVLCTLSMDCVER | 5.53
EASNCFAIRHFENKFAVETLICFCRYSDEVHWGA | 2.48
EASNCFAIRHFENKFAVETLICASRAGESRVAER | -0.717
EASNCFAIRHFENKFAVETLICYCVQAL | 5.3
EASNCFAIRHFENKFAVETLICLHGSSRRGEVMS | inactive
EASNCFAIRHFENKFAVETLICWDVMKCFRFFSG | 5.61
EASNCFAIRHFENKFAVETLICGSWEKDEAIGRL | inactive
EASNCFAIRHFENKFAVETLICRWLHHGQ | inactive
EASNCFAIRHFENKFAVETLICNQRFMRYDSNIW | 3.96

Sequence | amyloid nucleation score
EASNCFAIRHFENKFAVETLICLDWTRSWRRGAA | inactive
EASNCFAIRHFENKFAVETLICVVWRWWMSGSKG | inactive
EASNCFAIRHFENKFAVETLICTSMVDY | inactive
EASNCFAIRHFENKFAVETLICPEGPTSRAKGQR | inactive
EASNCFAIRHFENKFAVETLICRTWLL | inactive
EASNCFAIRHFENKFAVETLICQKQNWSCRSMRA | inactive
EASNCFAIRHFENKFAVETLICAASKAGTVEWRR | inactive
EASNCFAIRHFENKFAVETLICRWLMPTTGSLQR | inactive
EASNCFAIRHFENKFAVETLICTRSSGGPLVMGW | inactive
EASNCFAIRHFENKFAVETLICYVYSSIYESPLW | inactive
EASNCFAIRHFENKFAVETLICGKQDLYAKPVRS | inactive
EASNCFAIRHFENKFAVETLICGVGSGRFSDAMK | inactive
EASNCFAIRHFENKFAVETLICPQAQSLLVRGLV | -0.469
EASNCFAIRHFENKFAVETLICCW | 5.13
EASNCFAIRHFENKFAVETLICGGKKRCLTVRSV | inactive
EASNCFAIRHFENKFAVETLICPLCMGSELGVEP | 5.13
EASNCFAIRHFENKFAVETLICLPVEFCRLGVPW | 7.89
EASNCFAIRHFENKFAVETLICWVSTGGGQFRRS | inactive

same assay, conditions: random library (experiment): 2

Sequence | amyloid nucleation score
EASNCFAIRHFENKFAVETLICLFWSMYHVTTRS | inactive
EASNCFAIRHFENKFAVETLICVSL | inactive
EASNCFAIRHFENKFAVETLICLEYHGFKHPVNG | inactive
EASNCFAIRHFENKFAVETLICGSEWVQSGRVSR | inactive
EASNCFAIRHFENKFAVETLICFEKMRTFTDEHD | 1.58
EASNCFAIRHFENKFAVETLICRVVCNALNVYWI | inactive
EASNCFAIRHFENKFAVETLICYSKERLN | inactive
EASNCFAIRHFENKFAVETLICFTQLVG | inactive
EASNCFAIRHFENKFAVETLICNVGYSFLLLSCD | 3.48
EASNCFAIRHFENKFAVETLICYCLFYQDYEVKG | inactive
EASNCFAIRHFENKFAVETLICWLVIFVGCAYWR | inactive
EASNCFAIRHFENKFAVETLICVPKTLRMLLDSM | inactive
EASNCFAIRHFENKFAVETLICLCKRFIQLAMRK | inactive
EASNCFAIRHFENKFAVETLICHNSSRRYKRGVH | 2.25
EASNCFAIRHFENKFAVETLICHISWMIYQSIMR | inactive
EASNCFAIRHFENKFAVETLICIACVPDV | 6.77
EASNCFAIRHFENKFAVETLICVLAGLCVGRTML | 0.72
EASNCFAIRHFENKFAVETLICYFSIFV | 1.53
EASNCFAIRHFENKFAVETLICNYPWITKYLRWR | inactive
EASNCFAIRHFENKFAVETLICTYVSGYSRILVI | inactive
EASNCFAIRHFENKFAVETLICCFHKDRVYIFGV | inactive
EASNCFAIRHFENKFAVETLICLSFDIPWESLLI | inactive

Sequence | amyloid nucleation score
EASNCFAIRHFENKFAVETLICFLCMRLSGSFSW | inactive
EASNCFAIRHFENKFAVETLICWREIFLSFTLWV | inactive
EASNCFAIRHFENKFAVETLICWGRWF | 2.81
EASNCFAIRHFENKFAVETLICRTQCLSR | inactive
EASNCFAIRHFENKFAVETLICWSTSRRCAKECP | inactive
EASNCFAIRHFENKFAVETLICLSVSSYHHHPFL | 2.17
EASNCFAIRHFENKFAVETLICRPYSLGVRFRK | 0
EASNCFAIRHFENKFAVETLICAPFSNVC | 7.29
EASNCFAIRHFENKFAVETLICITSPTSVFVRLV | inactive
EASNCFAIRHFENKFAVETLICMSYIRNLVLKSL | -0.642
EASNCFAIRHFENKFAVETLICQLKLYAWSRFRG | inactive
EASNCFAIRHFENKFAVETLICCNRV | 6.75
EASNCFAIRHFENKFAVETLICAESSRDWTVDRK | inactive
EASNCFAIRHFENKFAVETLICMCY | inactive
EASNCFAIRHFENKFAVETLICYD | inactive
EASNCFAIRHFENKFAVETLICAVYCTFV | inactive
EASNCFAIRHFENKFAVETLICAIRQTGSKCVGL | inactive
EASNCFAIRHFENKFAVETLICRVRRVLRRYVWA | inactive
EASNCFAIRHFENKFAVETLICLCLVCVYAVLYF | inactive
EASNCFAIRHFENKFAVETLICHCS | inactive
EASNCFAIRHFENKFAVETLICPGRVF | inactive
EASNCFAIRHFENKFAVETLICMSYNYSSRRYMR | 4.61

same assay, conditions: random library (experiment): 3

Sequence | amyloid nucleation score
EASNCFAIRHFENKFAVETLICGHLACGTSHAVY | 1.19
EASNCFAIRHFENKFAVETLICFIMLFSISTWHL | inactive
EASNCFAIRHFENKFAVETLICLFSSSR | 5.12
EASNCFAIRHFENKFAVETLICISRYAGN | 4.22
EASNCFAIRHFENKFAVETLICGRTSVVRTGLMA | inactive
EASNCFAIRHFENKFAVETLICRMSYLPEAAYAL | inactive
EASNCFAIRHFENKFAVETLICMRTS | 0.461
EASNCFAIRHFENKFAVETLICTCLCC | 7.55
EASNCFAIRHFENKFAVETLICVPATMPYKQMLM | inactive
EASNCFAIRHFENKFAVETLICCLG | inactive
EASNCFAIRHFENKFAVETLICVMTSLFVALGGC | inactive
EASNCFAIRHFENKFAVETLICECPFLRKAGEFS | 6.64
EASNCFAIRHFENKFAVETLICVYGTGIGSMWEA | 0.104
EASNCFAIRHFENKFAVETLICLSACPGVALACS | inactive
EASNCFAIRHFENKFAVETLICALSPW | 4.96
EASNCFAIRHFENKFAVETLICCRLSFCHVNGKS | 5.93
EASNCFAIRHFENKFAVETLICRWVWVGEWACSA | inactive
EASNCFAIRHFENKFAVETLICLVM | 8.49
